Laboratory results as given in PubChem BioAssay AID485281 (National Center for Advancing Translational Sciences (NCATS), 2010).
Hit rate of the full screen: of about 350,000 compounds, about 260 (0.074%) were called active. Inconclusive means that the source gave no clear call. Such entries were picked first, then a sample of the others. Calls follow the shape of the dose curve; as a rule, active = well fitted inhibition curve with a large enough effect; inconclusive = small, poorly fitted or top-dose-only effect; inactive = no such curve, though single readings can be large or run the other way. Potencies beside an inconclusive call are fits to weak or partial responses and may not hold up.
% is scaled to controls: 0 for no effect and ±100 for the full control effect; potency is read from the fitted curve at half-maximal effect; tags tell the direction and shape of the fitted curve.
Also: nearly all actives have a fitted effect of over 20% in size.

Each compound was assayed against Ferritin light chain (Equus caballus) (UniProt P02791) (assay: qHTS Assay for Identification of Novel General Anesthetics). Conditions: apoferritin/1-aminoanthracene competitive binding, fluorescence; activity change, negative = displacement: at 77.5 µM (top of the series).
UniProt P02791, sequence (P02791 whole entry, looked up): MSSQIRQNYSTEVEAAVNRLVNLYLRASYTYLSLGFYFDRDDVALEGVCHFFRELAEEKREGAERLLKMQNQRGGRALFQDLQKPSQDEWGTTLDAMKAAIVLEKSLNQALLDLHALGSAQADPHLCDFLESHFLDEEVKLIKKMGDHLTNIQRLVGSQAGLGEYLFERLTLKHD
Method in brief: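 Apoferritin-based anesthetic binding model; compound displacement of fluorescent 1-AMA measured as endpoint fluorescence after 10 minutes at room temperature, scaled to free-ligand and complex controls.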
In the case of CC1CCCC(=C\c2ccccc2)/C1=N/O (stereo not given), the Potency is reported as inconclusive: 35.5 µM [inhibitor, single point]. O=C(CCNS(=O)(=O)c1cccc2nonc12)N1CCN(c2cccc(Cl)c2)CC1 was tested, and the Potency was inconclusive: 25.1 µM [inhibitor, partial curve]. COC(=O)[C@@]1(Cc2ccc(F)cc2)[C@H]2c3cc(C(=O)N(C)C)n(CCc4c[nH]c5ccc(OC)cc45)c3C[C@H]2CN1C(=O)c1ccccc1 was tested, and the Potency was inconclusive: 12.6 µM [inhibitor, partial curve]. With N#CC1=C(N)SC2(CCCCC2)SC1c1ccccc1 (stereo not given) the Potency was inconclusive: 35.5 µM [inhibitor, partial curve]. With COc1ccc(OC)c(/C=N/NC(=O)CN2CCSCC2)c1 the “activity change, negative = displacement” value was inactive: 53.4%. In the case of c1ccc2c(c1)Cc1cc3cc4c(cc3nc1-2)OCO4, the Potency is reported as inconclusive: 31.6 µM [inhibitor, single point]. For CCOC(=O)Cn1nc(-c2ccccc2)c2ccccc2c1=O, the “activity change, negative = displacement” value was inactive: -6.05%. For CSc1ccc(/C=N\NC(=O)CNc2ccc(C)cc2)cc1, the Potency was inconclusive: 8.91 µM [inhibitor, partial curve]. O=C(O)CCN1C(=O)c2ccc(NC(=O)Cc3ccc(Cl)cc3)cc2C1=O was tested, and the “activity change, negative = displacement” value was inactive: 10.6%. For CN(Cc1ccco1)C(=O)c1ccc(CNS(=O)(=O)c2ccc3c(c2)C(C)(C)C(=O)N3C)cc1, the Potency was inconclusive: 17.8 µM [inhibitor, partial curve]. For CC1(C)Cc2c(c(N3CCCC3)nc3sc4c(N5CCN(CCO)CC5)ncnc4c23)CO1, the Potency was inconclusive: 28.2 µM [inhibitor, partial curve]. COC(=O)c1sc(S(=O)(=O)N2CCC(C)CC2)c(C(=O)OC)c1C was tested, and the Potency was inconclusive: 20 µM [inhibitor, partial curve]. For CCC(C)(C)n1nnnc1C(c1cccnc1)N1CCC(Cc2ccccc2)CC1 (stereo not given), the Potency was inconclusive: 35.5 µM [inhibitor, single point]. With O=C(NC(=O)c1cccc(F)c1)Nc1ccc(-c2cc(C(F)(F)F)nn2-c2ccccc2)cc1 the “activity change, negative = displacement” value was inactive: 3.29%. With COc1ccc2nc3c(cc2c1)c(NC(=O)c1cccs1)nn3CC(C)C the “activity change, negative = displacement” value was inactive: 4.12%. For Cc1cc2cc(CNC(=O)Cc3ccc([N+](=O)[O-])cc3)ccc2[nH]1, the Potency was inconclusive: 39.8 µM [inhibitor, single point]. For CC(=C/c1ccccc1)/C=N/n1c(-c2ccco2)n[nH]c1=S, the Potency was inconclusive: 28.2 µM [inhibitor, partial curve]. With O=C(N/N=C/c1ccco1)c1ccc(NC(=O)C2CCCCC2)cc1 the Potency was inconclusive: 10 µM [inhibitor, partial curve]. With O=S(=O)(NCc1ccco1)c1cnc(Cl)c(Br)c1 the Potency was inconclusive: 50.1 µM [inhibitor, single point]. For CC(C)(Oc1ccc(Cl)cc1)C(=O)OCC(=O)Nc1ncc(Cl)cc1Cl, the Potency was inconclusive: 28.2 µM [inhibitor, partial curve]. For CS(=O)(=O)NCCNc1ccc(Cl)cc1[N+](=O)[O-], the Potency was inconclusive: 31.6 µM [inhibitor, single point]. For N#CCSc1nccc(/C=C/c2ccccc2)n1, the Potency was inconclusive: 44.7 µM [inhibitor, single point]. For Cc1ccc(COc2ccsc2C(=O)NN)cc1, the Potency was inconclusive: 28.2 µM [inhibitor, partial curve]. With O=C(NC1CCCCC1)C(c1ccccc1F)N(Cc1ccco1)C(=O)Cn1nnc2ccccc21 (stereo not given) the Potency was inconclusive: 3.98 µM [inhibitor, full curve]. For Cc1cccc2cc(CN(Cc3nnnn3Cc3ccco3)C3CCCC3)c3nnnn3c12, the “activity change, negative = displacement” value was inactive: 38%. In the case of Cc1oc(-c2ccc3c(c2)OCCO3)cc1C(=O)NCC(=O)O, the “activity change, negative = displacement” value is reported as inactive: -13.3%. With COc1ccccc1Nc1c2c(nc3ccc(NC(=O)/C=C/c4cccc(OC)c4OC)cc13)CCCC2 the Potency was inconclusive: 20 µM [inhibitor, partial curve]. In the case of COc1ccc(N=C/C=C2/C=C(c3ccccc3)OC(C)(C)O2)cc1, the Potency is reported as inconclusive: 31.6 µM [inhibitor, partial curve]. For CCCCCc1ccc(OCCCC[n+]2ccc(C)cc2)c(CCCCC)c1, the Potency was inconclusive: 11.2 µM [inhibitor, partial curve]. COc1ccccc1NC(=O)CSc1nnc(-c2cccc(Cl)c2)o1 was tested, and the Potency was inconclusive: 100 µM [inhibitor, partial curve, poor fit]. For COc1cccc(C(=O)Nc2cccc(OCC(=O)c3ccccc3)c2)c1, the Potency was inconclusive: 14.1 µM [inhibitor, partial curve]. With CCN(CC)S(=O)(=O)c1ccc(Cl)c(NC(=O)COC(=O)c2ccc(O)cc2)c1 the Potency was inconclusive: 39.8 µM [inhibitor, single point]. COc1ccccc1-c1cc(C(F)(F)F)nc(S(=O)(=O)CCCC(=O)N2CCCCC2C)n1 (stereo not given) was tested, and the Potency was inconclusive: 28.2 µM [inhibitor, partial curve]. In the case of Cc1cc(C)n2nc(SCC(=O)c3cc(C)n(-c4cc(C)on4)c3C)nc2n1, the Potency is reported as inconclusive: 11.2 µM [inhibitor, partial curve]. For COC(=O)c1cc(-c2c(C)oc3cc(OC(C)C)ccc3c2=O)c(C)o1, the Potency was inconclusive: 35.5 µM [inhibitor, single point]. For O=[N+]([O-])c1ccc(Oc2cccc3cccnc23)c([N+](=O)[O-])c1, the Potency was inconclusive: 17.8 µM [inhibitor, partial curve]. For COc1cc(NC(=S)NC(=O)c2ccc(C(C)(C)C)cc2)ccc1NC(=O)c1cccs1, the “activity change, negative = displacement” value was inactive: -10.5%. With Oc1cccc(Oc2ncc(C(F)(F)F)cc2Cl)c1 the Potency was inconclusive: 7.94 µM [inhibitor, partial curve]. O=C(OCC(=O)N1CCCCCC1)c1n[nH]c(=O)c2ccccc12 was tested, and the Potency was inconclusive: 35.5 µM [inhibitor, single point]. O=S(=O)(NCCc1ccccc1)c1ccc(F)cc1 was tested, and the Potency was inconclusive: 25.1 µM [inhibitor, partial curve]. For COc1ccc(C2Nc3ccccc3C(=O)N2c2ccc(C)cc2)cc1Cn1nnc2ccccc21 (stereo not given), the “activity change, negative = displacement” value was inactive: 126%. With CCOc1ccc(OCC)c(-c2c(=O)n(OCc3ccccc3C(=O)OC)c3ccccc3[n+]2[O-])c1 the Potency was inconclusive: 15.8 µM [inhibitor, partial curve]. O=C(NC1=NCCS1)c1ccc(-c2ccc(Cl)cc2)o1 was tested, and the Potency was inconclusive: 25.1 µM [inhibitor, partial curve]. For Cc1nnc(SCCCN2C(=O)c3ccccc3C2=O)o1, the Potency was inconclusive: 39.8 µM [inhibitor, single point]. With COc1ccc(/C=C/C(=O)OCCC(C)C)cc1 the Potency was inconclusive: 22.4 µM [inhibitor, partial curve]. With Cc1ccc(C(C(=O)NC2CCCCC2)N(C(=O)Cc2c[nH]c3ccccc23)c2ccccc2C)o1 (stereo not given) the “activity change, negative = displacement” value was inactive: -16.6%. With Cc1ccc(O)c(C(=O)c2cnc3c(c2)c(-c2ccc(F)cc2)c(C#N)c(=O)n3C)c1 the Potency was inconclusive: 14.1 µM [inhibitor, partial curve]. In the case of C=CS(=O)(=O)c1sc(Cl)c(N2CCOCC2)c1[N+](=O)[O-], the Potency is reported as inconclusive: 31.6 µM [inhibitor, partial curve]. In the case of CCOC(=O)c1sc2ccccc2c1S(=O)(=O)Nc1ccc(N(C)C)cc1, the Potency is reported as inconclusive: 22.4 µM [inhibitor, partial curve]. With Cc1cc(C(=O)CSc2ccccc2)cc(C)c1O the Potency was inconclusive: 44.7 µM [inhibitor, single point]. In the case of O=C(CN1CCCCCCC1)Nc1ccc(Cl)cc1Cl, the Potency is reported as inconclusive: 22.4 µM [inhibitor, partial curve]. COc1ccc(NC(=O)CN(C)C(=O)c2ccc(-c3cccc(C(F)(F)F)c3)o2)cc1 was tested, and the Potency was inconclusive: 28.2 µM [inhibitor, partial curve]. In the case of O=C1/C(=C/c2ccccc2)NC(=S)N1C(c1ccccc1)c1ccccc1, the Potency is reported as inconclusive: 17.8 µM [inhibitor, partial curve]. For CC(C)(C)NC(=O)c1cccc(NC(=O)c2ccc3c(c2)C(=O)N(C(C)(C)C)C3=O)c1, the Potency was inconclusive: 15.8 µM [inhibitor, partial curve]. For COc1cc(C(=O)NCC2CCCO2)ccc1OCc1ccccc1Cl (stereo not given), the Potency was inconclusive: 35.5 µM [inhibitor, partial curve]. For CC1CCc2c(sc3nnn(Cc4ccc(F)cc4)c(=O)c23)C1 (stereo not given), the Potency was inconclusive: 28.2 µM [inhibitor, partial curve]. COc1ccc(Nc2nc(Cl)c(C=O)s2)cc1 was tested, and the Potency was inconclusive: 39.8 µM [inhibitor, single point]. For Cc1nc(SCC(=O)c2ccc(F)cc2)c([N+](=O)[O-])[nH]1, the Potency was inconclusive: 44.7 µM [inhibitor, partial curve]. In the case of COc1cc(/C=N\NC(C)=O)ccc1OC/C=C/c1ccccc1, the “activity change, negative = displacement” value is reported as inactive: -7.1%. For Cn1cc(C(=O)C(=O)NCCc2ccccc2)c2ccccc21, the Potency was inconclusive: 15.8 µM [inhibitor, partial curve, poor fit]. For C/C(=N\NC(=O)c1ccoc1C)c1cccc2ccccc12, the Potency was inconclusive: 28.2 µM [inhibitor, single point]. For CC(=O)Nc1ccc(S(=O)(=O)N2CCc3ccccc3C2)cc1, the “activity change, negative = displacement” value was inactive: -13.9%. CCCNC(=O)NC(C)C12CC3CC(CC(C3)C1)C2 (stereo not given) was tested, and the Potency was inconclusive: 56.2 µM [inhibitor, single point]. O=C(CSC1=NCCS1)N1CCN(c2ccc(Cl)cc2)CC1 was tested, and the “activity change, negative = displacement” value was inactive: -16.6%. With COc1cccc(C(=O)COC(=O)CCC(=O)c2ccccc2)c1 the Potency was inconclusive: 12.6 µM [inhibitor, partial curve].
